We go through 167 variants from the RNAGym collection of RNA variant scans (doi:10.7554/elife.90254).

First the molecules themselves.
B1: LINE1-full (parent)
chain: UACGUAGGUGGUUUUCCCCUGAUAGUGCUAAGGGGGCCUGGAAGUUUGGACUGGGCAGAGCUCAACACAGCGUGGCAAAGUGGCUGUGGCUAGACUGCCUCUCUGGAUUCCUCGUCACUCAGCAGGGCAUCUCUGAGAGAAAUGCC

The source gives no read counts; variants with many changes may rest on few reads.

In this data set the parent is B1. Nature of the data set: self-cleavage, relative activity (ratio to wild type); higher = more cleavage; in vitro, sequencing; the parent is a self-cleaving ribozyme.
Take U12C G35A G58A U73C A140U: the self-cleavage was determined as 0.02. For U12C U23A A42G U47A U81C A140G the value was 2.8.

As for U12C U26A C111U U134G A140G, the self-cleavage stood at 1.09.

For U12C C116U U143C, the self-cleavage turned out to be 1.35.

Consider U12C U15G U119C, for which the self-cleavage was 1.67. Regarding U12C U23A G36C U100A, the self-cleavage is 0.55. To U12C G40U G49U A64G A141G belongs 0.11. For U12C U20C U47C G70A U100A the value was 0.3; for U12C G54A A64G A121G A136G, 0.21. To U12C U91C A136G belongs 0.63; to U12C C17U U102C U134A, 0; to U12C G86U U100C U109C, 0.15. As for U12C U15C A57G C95U U104A, the self-cleavage was 0.07.

For U12C U73A A124C, the self-cleavage was 2.3. To U12C G86C A141G belongs 0.1. Consider U12C G40A U46C A50U A59G A69G U91C, for which the self-cleavage was determined as 1.53. For U12C G74A U87C the value was 0.13; for U12C U20A A78G, 1.24; for U12C U29C C145U, 1.26. On to U12C U20C U81A, for which the self-cleavage was 1.95.

For the variant U12C U100C G127U, the self-cleavage worked out at 1.64.

On to U12C U14A U62C U115C, for which the self-cleavage was 0.32. With U12C U13C U39A A67G G88A U100C A142G, the self-cleavage stood at 0.

For the variant U12C U46C C84U A121U, the self-cleavage is 0.24.

For U12C U15C U47C A67U, the self-cleavage came to 0.83.

As to U12C U47C U52C A138G, the self-cleavage was determined as 2.76.

As for U12C U39C A124U A140G, the self-cleavage is 2.42. Regarding U12C U13C G144A, the self-cleavage stood at 1.1.

Turning to U12C U15A U87A A138G, the self-cleavage came out at 0.14. On to U12C C19A U108C U115C, for which the self-cleavage amounted to 1.67.

Take U12C G35A U112C: the self-cleavage amounted to 0.89.

Turning to U12C G32C U47C, the self-cleavage was determined as 1. With U12C U46C G55A, the self-cleavage is 0.92. For U12C C38A A57U the value was 0.28; for U12C U15C U87A A117U, 0. For U12C A141G U143C the value was 1.51; for U12C U14C A94G, 0.92; for U12C C98U U108C, 0.85. For U12C U81C C98U G106U the value was 0.78.

Take U12C G40C U115A: the self-cleavage worked out at 2.35. Consider U12C U26C G33A A67U A77U, for which the self-cleavage is 0.14.

For the variant U12C U20C G25U A42G U73A A79G A136G, the self-cleavage worked out at 2.04.

Take U12C G25A U47A A65U U87C A141G: the self-cleavage came to 0.09.

Take U12C G86A C111U: the self-cleavage stood at 0.01. To U12C G58A U143C belongs 0.2; to U12C U29A A69G, 0. On to U12C U14C A140U, for which the self-cleavage is 0.55.

Consider U12C U45G C113U A138G, for which the self-cleavage is 1.58. For the variant U12C U23A A136G, the self-cleavage turned out to be 1.34.

Regarding U12C U14C C95A, the self-cleavage came out at 0.37. As to U12C C28U U62A A69G, the self-cleavage stood at 0.1. To U12C G33U G36U U73C belongs 0.63; to U12C G27A G35C A79G, 0.82. As to U12C U20A U45C, the self-cleavage came out at 1.53. U12C U47C A57U A129U: the self-cleavage was found to be 0.31.

On to U12C U13C A117U U130C, for which the self-cleavage was 1.19. To U12C G35A A77G belongs 1.97; to U12C U13C U112C, 1.28; to U12C G21U U39C U100C A124G, 1.84. As for U12C U14C U39C U47C A59U A79G, the self-cleavage was found to be 2.04. For the variant U12C U29C U102A A138U, the self-cleavage amounted to 0.85. Turning to U12C U15C A43U U45C A92U, the self-cleavage was 0.66.

Consider U12C U23C C146U, for which the self-cleavage came out at 1.84. To U12C G55U A69G A79G A94U A136G belongs 0.44. With U12C U20A U104C, the self-cleavage stood at 1.48. As to U12C U47A U87C A121G, the self-cleavage was 0.3. For U12C U20G A138G the value was 1.08. For U12C U73A U91C the value was 0.44. For U12C A117G A138G the value was 1.53. U12C U85C G89A U91A C101A: the self-cleavage worked out at 0. For U12C U13A U62C U81C U100A U112A U132A the value was 1.15; for U12C U45A U96A A140G, 0.03; for U12C U39C G80C C113A U119C, 1.16.

Turning to U12C C18U A31U A67G U85C, the self-cleavage worked out at 0.

For U12C U20C U45C U102C, the self-cleavage turned out to be 0. On to U12C U23A A43G, for which the self-cleavage came out at 1.06. For U12C U39C A79G the value was 1.28; for U12C U96C U100A U130C, 0. To U12C U46C A77U A138G belongs 1.89.

Take U12C A138G G144A: the self-cleavage came out at 1.61. In the case of U12C C16U A142G, the self-cleavage came out at 1.29. With U12C U26C A67U A138G, the self-cleavage came out at 0.27. To U12C U85C U112G belongs 0.84; to U12C U15C A43U, 1.09; to U12C U62C A141G, 0.

Turning to U12C U62C A140G, the self-cleavage turned out to be 0.09.

As for U12C G53A A77G, the self-cleavage came to 2.06. For U12C C38A G72C the value was 1.02; for U12C G60A G75A, 0.05; for U12C G106U U108A A129G, 1.74. To U12C U13C U20G G34U U132C belongs 0.88. For U12C U15A A31U A59U C98A A141U, the self-cleavage was determined as 0.39. As to U12C A124U A129G, the self-cleavage is 1.61.

Regarding U12C U62C A64G G89A U96C A138G A141G, the self-cleavage stood at 0.1. For U12C U13C U14C A129U the value was 1.02. With U12C G89A U100C U115C, the self-cleavage was found to be 0.08. To U12C U15C G36A A124U A141G belongs 0.84; to U12C U23C U87C U109A A121G A129U A136G, 1.84; to U12C U73C A79G A121G, 2.3.

As to U12C U14C U119C, the self-cleavage worked out at 0.51. On to U12C U20A U47C G82A U104A, for which the self-cleavage came out at 1.2. In the case of U12C C28U A79U G80U, the self-cleavage was determined as 1.05. On to U12C G89A U100C, for which the self-cleavage was 0. U12C U73C A129G G144A C146U: the self-cleavage was found to be 2.3. With U12C C71A U91C U134A, the self-cleavage worked out at 0.09. On to U12C G34C U47G, for which the self-cleavage stood at 1.47.

For the variant U12C A124U C133U U143C, the self-cleavage came out at 1.3. With U12C A121G G122C, the self-cleavage amounted to 2.3. With U12C U46C U143A, the self-cleavage came to 0.9.

U12C U20C A140U: the self-cleavage worked out at 1.49. As for U12C G53A U100C C111A A124G, the self-cleavage worked out at 0.41. With U12C U29C U87C, the self-cleavage was 0. To U12C U23C G74A C98U A107G A142G belongs 0.39; to U12C G48U A65U A129U, 0.11; to U12C U14C G93A U132A, 0.19. For the variant U12C U29A A121G, the self-cleavage came to 1.45. U12C U46C U109C A141G: the self-cleavage came out at 1.8. For U12C U23C U39A the value was 0.97. For U12C C17G U81A U87C the value was 0.11.

Turning to U12C U62C A69G A92G, the self-cleavage stood at 1.31. To U12C U87A U143C belongs 0.06; to U12C U29A G35C A57U A78G C90A U109A, 0.06. For U12C U39C U46A A50U U62C U85C, the self-cleavage was 0. To U12C A94G G106U belongs 0.24; to U12C U52C A142G, 1.56; to U12C U26A A124G, 0.37. Regarding U12C U13C A64C A65U A78G, the self-cleavage was 0.

For the variant U12C U15A U102C A138G, the self-cleavage was found to be 0.74. To U12C G25A A42G G83A U119C belongs 1.29; to U12C U46C U109A, 0.8.

On to U12C U15C U26A A64G U96A, for which the self-cleavage was found to be 0. For U12C U73A U81A C98A, the self-cleavage turned out to be 0.59. For U12C G55A U91A the value was 0.6; for U12C A121G A136G, 2.1. Take U12C U62C U100C: the self-cleavage was determined as 0.

Consider U12C C101A U108C, for which the self-cleavage was found to be 2.3. For U12C G33A A67U U100C the value was 0.32; for U12C G33A U73C A94G G126A, 0.63. Consider U12C G74U A141G, for which the self-cleavage is 1.67. Consider U12C U20C C120U, for which the self-cleavage stood at 0.53. For U12C U46C A69G U85C A140G the value was 1.53. As to U12C C19A A94G U115C A140G, the self-cleavage came to 0.

As to U12C A136U G144U, the self-cleavage stood at 1.25. For U12C U45A A67G G88A U100C U143A the value was 0.23.

As for U12C U15A A77G, the self-cleavage turned out to be 1.59. To U12C C56U A64G A69G U104A belongs 0.05; to U12C G44A A94G, 0.2; to U12C U62C A77G G114A U119C U132A A142G, 0.08.

Turning to U12C U14A U26A A59G A67G A77U, the self-cleavage worked out at 0.14. For U12C C19U A57G U132C the value was 0; for U12C U20C C120U A140G, 2.27; for U12C U14C G27A A64G U85C A124U A142G, 0. On to U12C A136G G144U, for which the self-cleavage turned out to be 1.31. Turning to U12C U85C G86A A136U, the self-cleavage came out at 0.06.

Take U12C U20C G25A U39A A138G A142G: the self-cleavage came out at 1.18. In the case of U12C G25A U96C, the self-cleavage was determined as 0.19.

As for U12C U13C G27A C76U A107G U108C, the self-cleavage came out at 2.22. To U12C U14C A141C C145U belongs 1.4; to U12C U62C A117G, 0.26.

As for U12C U47C U108A, the self-cleavage was 1.11.

As for U12C U39A U87A A129G A142G, the self-cleavage was 0.27.

For U12C G32U A69G U108C, the self-cleavage came out at 0.15. To U12C U23C G36A A67U belongs 0.24; to U12C U15A A77U A92G, 0.27; to U12C U26C U39A A107G A138G, 1.84. To U12C U73C A107G belongs 1.02; to U12C U14A A94U U100C A142G, 0.91.
